The record followed here is PubChem BioAssay AID1963976 (Molecular Pharmacology Branch, DTP, NCI, 2024).

Not every entry of the source has a single result; some have several. This list holds those alone. An entry can have further records. Values that stand side by side are repeated measurements across runs, samples, wells, individuals or studies. Marks such as (2×) say how often a value occurs here.

The test concerns 435261-313-R-J1-PDC tumor spheroid viability. The test is described as follows: Anticancer human tumor 435261-313-R-J1-PDC patient-derived colon adenocarcinoma cell line growth inhibition [PI3K]. The settings on record: spheroids with HUVEC and MSC; for viability, T/C: stronger effect = lower value; for IC50: compound alone. The source says: Combinatorial screen of targeted agents with the PI3K inhibitors inavolisib, alpelisib, duvelisib, and copanlisib in multi-cell type tumor spheroids
A high-throughput screen of multi-cell type tumor spheroids was designed to identify active combinations of targeted small molecules and PI3K pathway inhibitors. Complex spheroids include a stromal component modeled by human endothelial cells (HUVEC) and fibroblasts modeled by human mesenchymal stem cells (MSCs). The concentration ranges selected for each drug and investigational agent were based upon clinically achievable concentrations if the clinical Cmax of the agent was known.
Compounds. The drugs and investigational agents: inavolisib (NSC800729), alpelisib (NSC765974), duvelisib (NSC772469), copanlisib (NSC816437), ipatasertib (NSC767898), afuresertib (NSC778305), talazoparib (NSC767125), sapanisertib (NSC764658), selumetinib (NSC741078), tovorafenib (DAY101, NSC766906), vemurafenib (NSC761431), ravoxertinib (NSC781343), sotorasib (NSC818433), MRTX1133 (NSC 836407), abemaciclib (NSC 768073), palbociclib (NSC758247), venetoclax (NSC 766270), SY5609 (NSC837396), enzalutamide (NSC755605), and darolutamide (NSC825331), were obtained from the National Cancer Institute (NCI) Developmental Therapeutics Program Chemical Repository. The FDA-approved anticancer drug set is available from the NCI Developmental Therapeutics Program. […] The stock solutions were prepared in dimethyl sulfoxide (DMSO, Sigma-Aldrich, St. Louis, MO, cat. D2650) at 800-fold the tested concentration and stored at -70 degrees C prior to their use. All drugs and investigational agents were tested over a range starting from a high concentration at or near the clinical Cmax and decreasing in half-log increments. If the clinical Cmax for an agent had not been determined, the highest concentration tested was 10 microM.
Cell Culture. All cells were maintained in an incubator at 37 degrees C and 5% CO2 with 95% humidity. The PDC lines were cultured according to standard operating procedures established by the NCI PDMR (https://pdmr.cancer.gov/sops/default.htm). All PDCs were thawed and cultured in Matrigel-coated flasks prepared with a working solution of 1X Ham's F-12 nutrient mix, without supplementation (Invitrogen, Waltham, MA, cat. 11765054), 100 U/mL penicillin-streptomycin (Invitrogen, cat. 15140122), and 2.5% Matrigel (Corning Inc., Corning, NY, cat. 354248) for the first three passages. The 354836-022-R-J1-PDC, 475296-252-R-J1-PDC, and 997726-040-R-J2-PDC lines were cultured in 6A media, which includes advanced DMEM/F-12 (Thermo Fisher Scientific, cat. 12634028), 10 mM HEPES (Thermo Fisher Scientific, cat. 15630080), 1X GlutaMAX supplement (Thermo Fisher Scientific, cat. 35050061), 0.1 mg/mL primocin (InvivoGen, San Diego, CA, cat. ant-pm-2), 10% defined fetal bovine serum, heat inactivated (HyClone Laboratories Inc., Logan, UT, cat. SH30070.03HI), 50% L-WRN conditioned media (ATCC, cat. CRL-3276), 1.25 mM N-Acetyl-L-cysteine (Sigma-Aldrich, cat. A9165), 10 mM nicotinamide (Sigma-Aldrich, cat. N0636), 1X B-27 supplement (Thermo Fisher Scientific, cat. 17504044), 1X N-2 supplement (Thermo Fisher Scientific, cat. 17502048), and 10 microM Y-27632 dihydrochloride (Tocris Bioscience, Bristol, United Kingdom, cat. 1254). The 624824-186-R-J2-PDC line was cultured in 6C/Colon 1B media, which includes all 6A media components plus 50 ng/mL human EGF recombinant protein (Thermo Fisher Scientific, cat. PHG0311). […]
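Note: spheroids exposed to compounds for 7 days.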

One may read the IC50 as the concentration that gives 50% inhibition. Turning to `CC(Nc1ncnc2nc[nH]c12)c1cc2cccc(Cl)c2c(=O)n1-c1ccccc1` (stereo not given), the viability, T/C by setting is: (compound alone 0.0316 µM) 92.6, 110, 95.9, 84.9, 96.1, 84.4, 92.4%; (compound alone 0.1 µM) 103 (2×), 105, 72.6, 75.1, 110, 76.6%; (compound alone 0.316 µM) 87.6, 86.9, 104, 71.6, 84.5, 74.7, 92.2%; (compound alone 10 µM) 64.4, 59.7, 37.5, 56.9, 60.2, 32.6, 46.5%. Besides, for the setting “run of 06/13/2023”, the concentration for half-maximal inhibition (IC50) is 6.68 µM, > 10 µM, 6.28 µM, 8.3 µM.

In the case of `C=CC(=O)N1CCN(c2nc(=O)n(-c3c(C)ccnc3C(C)C)c3nc(-c4c(O)cccc4F)c(F)cc23)C(C)C1` (stereo not given), the viability, T/C (compound alone 0.1 µM) is recorded as 113, 92.1, 81.7, 83.2% and the viability, T/C (compound alone 1 µM) is 72.7, 102, 77.8, 123%.

For the molecule `Cn1ncnc1[C@H]1c2n[nH]c(=O)c3cc(F)cc(c23)N[C@@H]1c1ccc(F)cc1`, the viability, T/C was 72.2, 67.2, 99.3, 127% (compound alone 0.000316 µM); 81.3, 95.7, 69.7, 73.6% (compound alone 0.001 µM); 73.9, 101, 77.2, 93.4% (compound alone 0.01 µM); 77.5, 102, 91.7, 65.2% (compound alone 0.0316 µM).

As for `CNC(=O)c1ccc(N2C(=S)N(c3ccc(C#N)c(C(F)(F)F)c3)C(=O)C2(C)C)cc1F`, the viability, T/C reads like this: (compound alone 0.0316 µM) 74.1, 113, 120, 104%; (compound alone 0.1 µM) 68.9, 115, 89.1, 74.2%; (compound alone 0.316 µM) 93.1, 99.2, 80.7, 72.9%; (compound alone 1 µM) 91.8, 90.2, 122, 68%; (compound alone 10 µM) 122, 88.1, 84.4, 83.1%.

With `Cc1nc(NC(=O)N2CCCC2C(N)=O)sc1-c1ccnc(C(C)(C)C(F)(F)F)c1` (stereo not given), where the note is “compound alone 0.0316 µM”, the viability, T/C was 98.5, 73.1, 84.7, 98.3, 98.9, 88.6%.

As to `CC(Nc1ccc2c(c1)OCCn1cc(N3C(=O)OCC3C(F)F)nc1-2)C(N)=O` (stereo not given), the viability, T/C is, setting by setting: (compound alone 0.00316 µM) 108, 99.9, 94.9, 101, 85.5, 77.8, 88.4%; (compound alone 0.01 µM) 120, 85.1, 86.3, 92.4, 87.6, 93.2, 108%; (compound alone 0.0316 µM) 35.9, 53.1, 91.9, 81.3, 66.9, 110, 104%. Moreover, the half-maximal inhibitory concentration (IC50) (run of 06/12/2023) is recorded as 25.7, 38.2, 66.5, 66.8, 56.5, 67.1, 78.2 nM.

As to `CCN1CCN(Cc2ccc(Nc3ncc(F)c(-c4cc(F)c5nc(C)n(C(C)C)c5c4)n3)nc2)CC1`, the IC50 is given as 73.7 nM, 781 nM, > 1 µM.

`COc1c(OCCCN2CCOCC2)ccc2c3n(c(=NC(=O)c4cnc(N)nc4)nc12)CCN3`: the viability, T/C reads like this: (compound alone 0.00316 µM) 65.8, 76.7, 90.8, 84.8, 57.5, 89.1%; (compound alone 0.01 µM) 51.8, 58.3, 58.7, 54, 55.8, 83.8%.

Turning to `CC1(C)CCC(CN2CCN(c3ccc(C(=O)NS(=O)(=O)c4ccc(NCC5CCOCC5)c([N+](=O)[O-])c4)c(Oc4cnc5[nH]ccc5c4)c3)CC2)=C(c2ccc(Cl)cc2)C1`, the IC50 is 5.45 µM, 6.46 µM, > 10 µM, 5.79 µM. Moreover, under “compound alone 0.0316 µM”, the viability, T/C is recorded as 78.1, 77.3, 92.4, 105%. Moreover, the viability, T/C (compound alone 0.1 µM) is listed as 79.9, 109, 63, 72.1%. For the same molecule, under “compound alone 0.316 µM”, the viability, T/C was 70.9, 116, 106, 131%. Under “compound alone 1 µM”, the viability, T/C is on record as 76, 91.4, 87.1, 106%. Further, the viability, T/C (compound alone 10 µM) was 12.7, 19.4, 71.2, 15.5%.

Take `Cn1nccc1Nc1nccc(-c2ccn(C(CO)c3ccc(Cl)c(F)c3)c(=O)c2)n1` (stereo not given): the IC50 is given as 518, 227, 403, 925 nM. Besides, under “compound alone 0.0316 µM”, the viability, T/C is 68.2, 50, 103, 94.5%. Also, the viability, T/C (compound alone 0.1 µM) is given as 72.5, 67.9, 67.7, 95.5%.

On to `CC1(C)CCC(Nc2ncc(C(F)(F)F)c(-c3c[nH]c4c(P(C)(C)=O)c(C#N)ccc34)n2)CN1` (stereo not given), for which the IC50 is recorded as 315 nM, 1.25 µM, 2.59 µM, 3.76 µM. Further, the viability, T/C (compound alone 0.316 µM) is reported as 41.7, 66.3, 58.7, 72.3%.
